To fix the notation:
B1: TEV protease; numbered along this chain (parent)
chain: MGESLFKGPRDYNPISSSICHLTNESDGHTTSLYGIGFGPFIITNKHLFRRNNGTLVVQSLHGVFKVKDTTTLQQHLVDGRDMIIIRMPKDFPPFPQKLKFREPQREERICLVTTNFQTKSMSSMVSDTSCTFPSGDGIFWKHWIQTKDGQCGSPLVSTRDGFIVGIHSASNFTNTNNYFTSVPKNFMELLTNQEAQQWVSGWRLNADSVLWGGHKVFMVKPEEPFQPVKEATQL

In this assay the parent is B1. The experiment in a line: raw area under fraction-flipped curve 0-4 h after induction (AUC4h, not background-subtracted), DNA-recorder readout of cleavage of the substrate (dimensionless); higher = more cleavage of the substrate by the protease variant. The following applies: temperature: 34 °C; time window: 0-4 h after rhamnose induction. The procedure:
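In vivo DNA recorder in E. coli TOP10(DE3) ΔrhaA at 34 °C. Each TEVp single-site mutant (parent TEVp 0) is paired with a single-site variant of the 7-mer TEVs (canonical ENLYFQ|S). The substrate sits between flexible linkers in a Bxb1-sfGFP-TEVs-SsrA fusion, so cleavage stabilises Bxb1 and speeds flipping of a recombination array, read by NGS. The value is the raw area under the fraction-flipped curve over 0-4 h after rhamnose induction (AUC4h), with ≥20 reads per time point. It is not background-subtracted; inactive controls average about 0.047.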

The other results are listed elsewhere or left out. Sequences were assembled here from the parent chain. Values near 0.05 are background.
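Note: Bxb1 expression induced with 0.2% (w/v) L-rhamnose at OD600 near 0.5, cultures sampled hourly, flipped fraction per protease–substrate barcode pair counted by paired-end Illumina sequencing.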

As for MGESLFKGPRDYNPISSWICHLTNESDGHTTSLYGIGFGPFIITNKHLFRRNNGTLVVQSLHGVFKVKDTTTLQQHLVDGRDMIIIRMPKDFPPFPQKLKFREPQREERICLVTTNFQTKSMSSMVSDTSCTFPSGDGIFWKHWIQTKDGQCGSPLVSTRDGFIVGIHSASNFTNTNNYFTSVPKNFMELLTNQEAQQWVSGWRLNADSVLWGGHKVFMVKPEEPFQPVKEATQL [S18W], the “area with substrate ENLYFAS” value is 0.0627, the “area with substrate ENLYFCS” value came out at 0.0552, the “area with substrate ENLYFES” value is 0.0548 and the “area with substrate ENLYFFS” value worked out at 0.064. For the same variant, the “area with substrate ENLYFGS” value came to 0.0641, the “area with substrate ENLYFHS” value came out at 0.0539, the “area with substrate ENLYFIS” value stood at 0.0495 and the “area with substrate ENLYFKS” value came to 0.0506. Besides, the “area with substrate ENLYFMS” value worked out at 0.0387, the “area with substrate ENLYFNS” value was 0.0554, the “area with substrate ENLYFPS” value was 0.0511 and the “area with substrate ENLYFRS” value stood at 0.0531. Further, the “area with substrate ENLYFWS” value is 0.0357 and the “area with substrate ENLYFYS” value worked out at 0.056.
Consider MGESLFKGPRDYNPISSEICHLTNESDGHTTSLYGIGFGPFIITNKHLFRRNNGTLVVQSLHGVFKVKDTTTLQQHLVDGRDMIIIRMPKDFPPFPQKLKFREPQREERICLVTTNFQTKSMSSMVSDTSCTFPSGDGIFWKHWIQTKDGQCGSPLVSTRDGFIVGIHSASNFTNTNNYFTSVPKNFMELLTNQEAQQWVSGWRLNADSVLWGGHKVFMVKPEEPFQPVKEATQL [S18E], for which the “area with substrate ENLYFAS” value is 0.0589, the “area with substrate ENLYFCS” value came to 0.0437, the “area with substrate ENLYFDS” value stood at 0.0561 and the “area with substrate ENLYFES” value is 0.0574. Moreover, the “area with substrate ENLYFFS” value is 0.051, the “area with substrate ENLYFHS” value is 0.0875, the “area with substrate ENLYFIS” value was determined as 0.0524 and the “area with substrate ENLYFKS” value amounted to 0.0563. Besides, the “area with substrate ENLYFMS” value was 0.06, the “area with substrate ENLYFNS” value was 0.0653, the “area with substrate ENLYFPS” value amounted to 0.0588 and the “area with substrate ENLYFRS” value worked out at 0.0479. Besides, the “area with substrate ENLYFSS” value amounted to 0.0608, the “area with substrate ENLYFTS” value came to 0.0419 and the “area with substrate ENLYFYS” value was 0.0596.
Take MGESLFKGPRDYYPISSSICHLTNESDGHTTSLYGIGFGPFIITNKHLFRRNNGTLVVQSLHGVFKVKDTTTLQQHLVDGRDMIIIRMPKDFPPFPQKLKFREPQREERICLVTTNFQTKSMSSMVSDTSCTFPSGDGIFWKHWIQTKDGQCGSPLVSTRDGFIVGIHSASNFTNTNNYFTSVPKNFMELLTNQEAQQWVSGWRLNADSVLWGGHKVFMVKPEEPFQPVKEATQL [N13Y]: the “area with substrate ENLYFAS” value stood at 0.0661, the “area with substrate ENLYFCS” value was 0.063, the “area with substrate ENLYFDS” value came out at 0.0635 and the “area with substrate ENLYFES” value worked out at 0.0694. In addition, the “area with substrate ENLYFGS” value was determined as 0.0569, the “area with substrate ENLYFHS” value amounted to 0.0646, the “area with substrate ENLYFIS” value was found to be 0.0576 and the “area with substrate ENLYFLS” value is 0.0567. The “area with substrate ENLYFMS” value was determined as 0.0605, the “area with substrate ENLYFPS” value came out at 0.0553, the “area with substrate ENLYFSS” value was 0.0585 and the “area with substrate ENLYFWS” value was 0.056. For the same variant, the “area with substrate ENLYFYS” value came out at 0.0691.
On to MGESLMKGPRDYNPISSSICHLTNESDGHTTSLYGIGFGPFIITNKHLFRRNNGTLVVQSLHGVFKVKDTTTLQQHLVDGRDMIIIRMPKDFPPFPQKLKFREPQREERICLVTTNFQTKSMSSMVSDTSCTFPSGDGIFWKHWIQTKDGQCGSPLVSTRDGFIVGIHSASNFTNTNNYFTSVPKNFMELLTNQEAQQWVSGWRLNADSVLWGGHKVFMVKPEEPFQPVKEATQL [F6M], for which the “area with substrate ENLYFAS” value was determined as 0.068, the “area with substrate ENLYFCS” value was 0.0711, the “area with substrate ENLYFDS” value stood at 0.0597 and the “area with substrate ENLYFFS” value was found to be 0.0621. The “area with substrate ENLYFHS” value came out at 0.0602, the “area with substrate ENLYFIS” value came to 0.0482, the “area with substrate ENLYFKS” value came out at 0.0608 and the “area with substrate ENLYFMS” value came to 0.0702. The “area with substrate ENLYFSS” value is 0.0601, the “area with substrate ENLYFVS” value is 0.0695 and the “area with substrate ENLYFWS” value worked out at 0.074.
MGESLVKGPRDYNPISSSICHLTNESDGHTTSLYGIGFGPFIITNKHLFRRNNGTLVVQSLHGVFKVKDTTTLQQHLVDGRDMIIIRMPKDFPPFPQKLKFREPQREERICLVTTNFQTKSMSSMVSDTSCTFPSGDGIFWKHWIQTKDGQCGSPLVSTRDGFIVGIHSASNFTNTNNYFTSVPKNFMELLTNQEAQQWVSGWRLNADSVLWGGHKVFMVKPEEPFQPVKEATQL [F6V]: the “area with substrate ENLYFAS” value came out at 0.0661, the “area with substrate ENLYFDS” value worked out at 0.0573, the “area with substrate ENLYFFS” value was 0.0545 and the “area with substrate ENLYFGS” value came to 0.0491. Moreover, the “area with substrate ENLYFHS” value came out at 0.0958, the “area with substrate ENLYFIS” value came out at 0.0642, the “area with substrate ENLYFLS” value was determined as 0.0743 and the “area with substrate ENLYFMS” value turned out to be 0.0828. Besides, the “area with substrate ENLYFPS” value was 0.0716, the “area with substrate ENLYFTS” value was 0.0721 and the “area with substrate ENLYFVS” value amounted to 0.0679.
As for MGESLFKGPRNYNPISSSICHLTNESDGHTTSLYGIGFGPFIITNKHLFRRNNGTLVVQSLHGVFKVKDTTTLQQHLVDGRDMIIIRMPKDFPPFPQKLKFREPQREERICLVTTNFQTKSMSSMVSDTSCTFPSGDGIFWKHWIQTKDGQCGSPLVSTRDGFIVGIHSASNFTNTNNYFTSVPKNFMELLTNQEAQQWVSGWRLNADSVLWGGHKVFMVKPEEPFQPVKEATQL [D11N], the “area with substrate ENLYFAS” value was found to be 0.0722, the “area with substrate ENLYFCS” value was found to be 0.0601, the “area with substrate ENLYFDS” value stood at 0.0708 and the “area with substrate ENLYFES” value worked out at 0.043. Further, the “area with substrate ENLYFFS” value is 0.0681, the “area with substrate ENLYFIS” value was found to be 0.0668, the “area with substrate ENLYFKS” value was 0.0653 and the “area with substrate ENLYFMS” value came out at 0.0544. For the same variant, the “area with substrate ENLYFNS” value amounted to 0.0825, the “area with substrate ENLYFPS” value was found to be 0.0594, the “area with substrate ENLYFRS” value was determined as 0.0665 and the “area with substrate ENLYFTS” value turned out to be 0.0475. In addition, the “area with substrate ENLYFVS” value was 0.066, the “area with substrate ENLYFWS” value was found to be 0.055 and the “area with substrate ENLYFYS” value was found to be 0.0533.
For the variant MGESLFKGPRGYNPISSSICHLTNESDGHTTSLYGIGFGPFIITNKHLFRRNNGTLVVQSLHGVFKVKDTTTLQQHLVDGRDMIIIRMPKDFPPFPQKLKFREPQREERICLVTTNFQTKSMSSMVSDTSCTFPSGDGIFWKHWIQTKDGQCGSPLVSTRDGFIVGIHSASNFTNTNNYFTSVPKNFMELLTNQEAQQWVSGWRLNADSVLWGGHKVFMVKPEEPFQPVKEATQL [D11G], the “area with substrate ENLYFAS” value was found to be 0.0589, the “area with substrate ENLYFCS” value amounted to 0.0661, the “area with substrate ENLYFDS” value amounted to 0.0557 and the “area with substrate ENLYFES” value was 0.0628. For the same variant, the “area with substrate ENLYFFS” value is 0.0501, the “area with substrate ENLYFHS” value came out at 0.0575, the “area with substrate ENLYFIS” value stood at 0.0551 and the “area with substrate ENLYFKS” value is 0.0642. Further, the “area with substrate ENLYFMS” value is 0.0674, the “area with substrate ENLYFNS” value is 0.062, the “area with substrate ENLYFPS” value was 0.0568 and the “area with substrate ENLYFRS” value turned out to be 0.0628. In addition, the “area with substrate ENLYFSS” value came out at 0.0459, the “area with substrate ENLYFTS” value amounted to 0.0646, the “area with substrate ENLYFVS” value came out at 0.0637 and the “area with substrate ENLYFWS” value was found to be 0.0713.
For MGESLFKGPRHYNPISSSICHLTNESDGHTTSLYGIGFGPFIITNKHLFRRNNGTLVVQSLHGVFKVKDTTTLQQHLVDGRDMIIIRMPKDFPPFPQKLKFREPQREERICLVTTNFQTKSMSSMVSDTSCTFPSGDGIFWKHWIQTKDGQCGSPLVSTRDGFIVGIHSASNFTNTNNYFTSVPKNFMELLTNQEAQQWVSGWRLNADSVLWGGHKVFMVKPEEPFQPVKEATQL [D11H], the “area with substrate ENLYFAS” value came to 0.0492, the “area with substrate ENLYFCS” value was 0.0543, the “area with substrate ENLYFDS” value worked out at 0.0576 and the “area with substrate ENLYFES” value was found to be 0.0486. The “area with substrate ENLYFFS” value was 0.0687, the “area with substrate ENLYFGS” value stood at 0.0726, the “area with substrate ENLYFHS” value was found to be 0.0643 and the “area with substrate ENLYFIS” value was 0.0647. For the same variant, the “area with substrate ENLYFKS” value stood at 0.0579, the “area with substrate ENLYFLS” value was found to be 0.0793, the “area with substrate ENLYFMS” value came to 0.0645 and the “area with substrate ENLYFNS” value is 0.0669. For the same variant, the “area with substrate ENLYFPS” value was 0.0524, the “area with substrate ENLYFRS” value is 0.0638, the “area with substrate ENLYFSS” value came out at 0.0571 and the “area with substrate ENLYFTS” value amounted to 0.0616. Also, the “area with substrate ENLYFVS” value turned out to be 0.0204, the “area with substrate ENLYFWS” value came to 0.0648 and the “area with substrate ENLYFYS” value was 0.0801.
Take MGESLFKGPRYYNPISSSICHLTNESDGHTTSLYGIGFGPFIITNKHLFRRNNGTLVVQSLHGVFKVKDTTTLQQHLVDGRDMIIIRMPKDFPPFPQKLKFREPQREERICLVTTNFQTKSMSSMVSDTSCTFPSGDGIFWKHWIQTKDGQCGSPLVSTRDGFIVGIHSASNFTNTNNYFTSVPKNFMELLTNQEAQQWVSGWRLNADSVLWGGHKVFMVKPEEPFQPVKEATQL [D11Y]: the “area with substrate ENLYFAS” value was 0.085, the “area with substrate ENLYFCS” value is 0.0589, the “area with substrate ENLYFDS” value was determined as 0.055 and the “area with substrate ENLYFES” value came out at 0.061. The “area with substrate ENLYFFS” value is 0.0647, the “area with substrate ENLYFGS” value was determined as 0.0571, the “area with substrate ENLYFHS” value came out at 0.0623 and the “area with substrate ENLYFIS” value was found to be 0.06. Also, the “area with substrate ENLYFKS” value was found to be 0.0657, the “area with substrate ENLYFMS” value worked out at 0.0638, the “area with substrate ENLYFNS” value stood at 0.0594 and the “area with substrate ENLYFPS” value worked out at 0.0633. Also, the “area with substrate ENLYFRS” value is 0.0659, the “area with substrate ENLYFTS” value was 0.0538, the “area with substrate ENLYFVS” value is 0.0485 and the “area with substrate ENLYFWS” value amounted to 0.0766. The “area with substrate ENLYFYS” value was 0.0567.

The record behind these values is the supplement of paper PMC12217912.
